Test results from the GPR68 mutational scans of Howard et al. (2025).
The least precise scores are not listed. Not listed are two conditions whose scores span a narrow range. Names with del lack the residues named; names with ins carry added residues between the positions named. For some assays here: The concentration of ogerin is not given here.

B1: GPR68, Q15743 (parent)
chain: MGNITADNSSMSCTIDHTIHQTLAPVVYVTVLVVGFPANCLSLYFGYLQIKARNELGVYLCNLTVADLFYICSLPFWLQYVLQHDNWSHGDLSCQVCGILLYENIYISVGFLCCISVDRYLAVAHPFRFHQFRTLKAAVGVSVVIWAKELLTSIYFLMHEEVIEDENQHRVCFEHYPIQAWQRAINYYRFLVGFLFPICLLLASYQGILRAVRRSHGTQKSRKDQIQRLVLSTVVIFLACFLPYHVLLLVRSVWEASCDFAKGVFNAYHFSLLLTSFNCVADPVLYCFVSETTHRDLARLRGACLAFLTCSRTGRAREAYPLGAPEASGKSGAQGEEPELLTKLHPAFQTPNSPGSGGFPTGRLA

What was measured:
[1] = variants of: B1; assay: cAMP reporter score (Enrich2 score, wild type = 0); higher = more signal; HEK293T, FACS bins
[2] = variants of: B1; assay: surface expression score (Enrich2 score, wild type = 0); higher = more signal; HEK293T, FACS bins

Variant	cAMP reporter score ([1]; pH 5.5)	cAMP reporter score ([1]; pH 6)	cAMP reporter score ([1]; pH 6, modulator: ogerin)	cAMP reporter score ([1]; pH 6.5, modulator: ogerin)	surface expression score [2]
L272_L274del	-1.44	-0.549	-1.43	-1.22	-2.22
A281_D282insGS	-1.53	-1.26	-1.83	-1.37	-1.81
F277_N278del	-1.95	-1.22	-2.23	-0.222	-2.23
L273K	-1.16	-0.793	-1.73	-1.7	-2.7
L273T	-1.72	-0.282	-1.2	-0.989	-1.82
L273P	-2.21	-1.76	-1.2	-0.789	-2.31
L273E	-0.904	-0.866			-1.3
L273A	-1.14		-1.26		-0.595
L273D	-1.5	-0.989	-2.66	-1.32	-2.7
L273G	-1.36	-1.13	-0.957	-0.584	-2.11
L273M	0.914	0.098	0.682	0.077	0.298
L273Y	-0.991	-1.66	0.072	-0.683	0.261
L273V	-1.29		-0.195	-0.481	-0.731
L273Q	-0.899	-0.512	-1.66	-0.763	-1.68
L273H	-1.68	-0.36	-1.99	-1.14	-1.79
L273W	-0.37			-1.13	-0.225
L273N	-1.44	-0.447	-1.9	-0.92	-2.13
L273R	-1.43	-0.354	-1.39	-1.41	-0.812
L273S	-0.67	-1.16	-1.31	-0.313	-1.98
L273F	0.03	-0.711	-0.645	-0.34	-0.387
L273C	-0.134	-1.24	-1.46	-0.076	-1.03

Variant	cAMP reporter score ([1]; pH 5.5)	cAMP reporter score ([1]; pH 6)	cAMP reporter score ([1]; pH 6, modulator: ogerin)	cAMP reporter score ([1]; pH 6.5, modulator: ogerin)	surface expression score [2]
L273I	0.285			0.115	-0.198
S252Y	-1.28	-0.987	-1.62	-1.09	-2.04
S252W	-1.35	-1.02		-1.27	-1.99
S252T	-0.08	-0.674	0.196	0.067	0.561
S252V	0.535	-0.551	1.41	0.343	-1.05
C258del	-1.2	-1.55	-1.34	-1.46	-1.25
E255_A256insG	-0.695	-0.731	-0.894	-1.16	1.68
V253_W254insG	-0.406	1.22	-1.52		2.38
F260_A261insGSG	-1.09	-1.64	-1.19	-1.47	-1.43
C258_F260del	-1.49	-0.91	-1.59	-1.17	-2.03
H269_S271del	-2.1	-0.514	-1.57	-1.42	-1.67
Y268_H269del	-1.46	-0.919	-1.75	-0.667	-2.36
A267C	-0.914	-1.21	-0.849	-0.434	-1.85
A267V	0.814		1.31	1.57	0.303
A267F	0.204	0.84	0.433	0.832	-0.388
A267G	0.73	-0.609	0.342	-0.069	-0.374
A267K	-0.551	-0.647	-0.028	0.439	-1.33
A267H	-0.029	-0.33	-1.08	-0.987	-1.58
A267T	-0.669	-0.358	-0.701	-0.604	-0.576
A267Y	-0.312		0.078	-1.04	
A267N	-1.03	-0.837	-1.49	-0.978	-2.85

Variant	cAMP reporter score ([1]; pH 5.5)	cAMP reporter score ([1]; pH 6)	cAMP reporter score ([1]; pH 6, modulator: ogerin)	cAMP reporter score ([1]; pH 6.5, modulator: ogerin)	surface expression score [2]
A267I	0.865	0.634	1.39	1.42	0.905
A267W	0.948	0.917	1.5	1.4	2.11
A267D	-1.51	-0.853	-1.48	-1.64	-2.29
A267S	0.008	-0.46	0.368	-0.262	0.159
A267P	-0.155	-1.11	0.783	0.664	-0.655
A267L	-0.732		-0.756	-1.68	
A267M	-0.303	-0.618	0.239	-0.843	0.332
A267E	-0.013	-1.25	-0.793	-1.9	-2.25
S276_F277insGSG	-1.73	0.122	-0.928	-0.975	-2.85
V253_W254del	-1.47		-0.938	-0.537	-2.24
L272_L273insGSG	-0.789	-0.608	-1.11	-0.569	-1.68
A256del	-0.409	-1.26	-2.13		-0.719
Y268_H269insG	-1.71	-1.6	-2	-0.934	-2.21
D259_F260insGSG	-1.19	-0.377	-1.14	-0.895	1.32
H269_F270insGS	-0.793	0.028	-1.92	-1.75	-0.984
A256_S257insGSG	-0.645	-0.592	-0.382	-0.645	1.21
T275_S276insG	-1.42	-2.88	-2.02	-0.571	-2.64
A267_H269del	-0.958		-1.36	-0.492	-2.88
V264I	0.851	0.819	1.07	0.96	1.4
V264P	-1.47	-0.88	-1.8	-1.41	-2.06
V264G	-0.748	-1.07	-0.832	-1.66	-1.71
